According to PMC12820563:
The list shows a part of the results. The list includes weakly bound sequences.

These sequences were tested against T1, MBP-FoxP3dN (UniProt Q99JB6) (assay: PD-seq (MBP pull-down with sequencing)). Settings: 20 mM Tris-HCl pH 7.5, 100 mM NaCl, 1.5 mM MgCl2, 0.4 uM protein, 0.1 uM dsDNA library, 30 min, room temperature, amylose pull-down; high values mean tight binding; double strand, one strand shown.
T1 sequence: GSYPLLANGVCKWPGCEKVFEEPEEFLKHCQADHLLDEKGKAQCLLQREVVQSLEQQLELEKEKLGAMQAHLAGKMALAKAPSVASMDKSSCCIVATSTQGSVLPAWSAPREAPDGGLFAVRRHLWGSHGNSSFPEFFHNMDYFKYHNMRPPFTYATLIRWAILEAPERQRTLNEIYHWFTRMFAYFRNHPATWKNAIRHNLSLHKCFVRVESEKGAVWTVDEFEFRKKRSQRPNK

Row | Sequence | binding signal (RPM ratio (pull-down/input))
1 | GATGATTGTTCTCCCAGCTGATGAATTGCCCATATCGAGTAAACAAATTTTCCTAATCTTTCTGTTCAAGCGCCATCTAC | 0.654
2 | GATGATTGTTCTCCCAGCTGATGAATTGACTCTTTCGAGTAAACAAATTTTCCTAATCTTTCTGTTCAAGCGCCATCTAC | 0.427
3 | GATGATTGTTCTCCCAGCTGATGAATTTAAATGGTCGAGTAAACAAATTTTCCTAATCTTTCTGTTCAAGCGCCATCTAC | 0.498
4 | GATGATTGTTCTCCCAGCTGATGAATTATCAACTTCGAGTAAACAAATTTTCCTAATCTTTCTGTTCAAGCGCCATCTAC | 0.411
5 | GATGATTGTTCTCCCAGCTGATGAATTCCATGCCTCGAGTAAACAAATTTTCCTAATCTTTCTGTTCAAGCGCCATCTAC | 0.597
6 | GATGATTGTTCTCCCAGCTGATGAATTCCAGATTTCGAGTAAACAAATTTTCCTAATCTTTCTGTTCAAGCGCCATCTAC | 0.238
7 | GATGATTGTTCTCCCAGCTGATGAATTGTTGATATCGAGTAAACAAATTTTCCTAATCTTTCTGTTCAAGCGCCATCTAC | 3.49
8 | GATGATTGTTCTCCCAGCTGATGAATTGGGCGATTCGAGTAAACAAATTTTCCTAATCTTTCTGTTCAAGCGCCATCTAC | 0.974
9 | GATGATTGTTCTCCCAGCTGATGAATTGGTTCTATCGAGTAAACAAATTTTCCTAATCTTTCTGTTCAAGCGCCATCTAC | 0.37
10 | GATGATTGTTCTCCCAGCTGATGAATTCAGGCGATCGAGTAAACAAATTTTCCTAATCTTTCTGTTCAAGCGCCATCTAC | 0.508
11 | GATGATTGTTCTCCCAGCTGATGAATTTTCATAATCGAGTAAACAAATTTTCCTAATCTTTCTGTTCAAGCGCCATCTAC | 0.381
12 | GATGATTGTTCTCCCAGCTGATGAATTGTTACCCTCGAGTAAACAAATTTTCCTAATCTTTCTGTTCAAGCGCCATCTAC | 0.738
13 | GATGATTGTTCTCCCAGCTGATGAATTGACGGCCTCGAGTAAACAAATTTTCCTAATCTTTCTGTTCAAGCGCCATCTAC | 0.45
14 | GATGATTGTTCTCCCAGCTGATGAATTCCTTGCTTCGAGTAAACAAATTTTCCTAATCTTTCTGTTCAAGCGCCATCTAC | 0.317
15 | GATGATTGTTCTCCCAGCTGATGAATTCTTTGGTTCGAGTAAACAAATTTTCCTAATCTTTCTGTTCAAGCGCCATCTAC | 0.309
16 | GATGATTGTTCTCCCAGCTGATGAATTAGGAAAATCGAGTAAACAAATTTTCCTAATCTTTCTGTTCAAGCGCCATCTAC | 0.151
17 | GATGATTGTTCTCCCAGCTGATGAATTTTTGACCTCGAGTAAACAAATTTTCCTAATCTTTCTGTTCAAGCGCCATCTAC | 0.237
18 | GATGATTGTTCTCCCAGCTGATGAATTTTGACTCTCGAGTAAACAAATTTTCCTAATCTTTCTGTTCAAGCGCCATCTAC | 2.06
19 | GATGATTGTTCTCCCAGCTGATGAATTACTGAAGTCGAGTAAACAAATTTTCCTAATCTTTCTGTTCAAGCGCCATCTAC | 0.235
20 | GATGATTGTTCTCCCAGCTGATGAATTTTAGGGATCGAGTAAACAAATTTTCCTAATCTTTCTGTTCAAGCGCCATCTAC | 0.305

Row | Sequence | binding signal (RPM ratio (pull-down/input))
21 | GATGATTGTTCTCCCAGCTGATGAATTTACCGATTCGAGTAAACAAATTTTCCTAATCTTTCTGTTCAAGCGCCATCTAC | 0.399
22 | GATGATTGTTCTCCCAGCTGATGAATTTTTAAGGTCGAGTAAACAAATTTTCCTAATCTTTCTGTTCAAGCGCCATCTAC | 0.186
23 | GATGATTGTTCTCCCAGCTGATGAATTAATGCATTCGAGTAAACAAATTTTCCTAATCTTTCTGTTCAAGCGCCATCTAC | 6.89
24 | GATGATTGTTCTCCCAGCTGATGAATTGCCAAGTTCGAGTAAACAAATTTTCCTAATCTTTCTGTTCAAGCGCCATCTAC | 0.424
25 | GATGATTGTTCTCCCAGCTGATGAATTGAGTGTGTCGAGTAAACAAATTTTCCTAATCTTTCTGTTCAAGCGCCATCTAC | 1.79
26 | GATGATTGTTCTCCCAGCTGATGAATTCTAGAGATCGAGTAAACAAATTTTCCTAATCTTTCTGTTCAAGCGCCATCTAC | 0.212
27 | GATGATTGTTCTCCCAGCTGATGAATTGAGCAAATCGAGTAAACAAATTTTCCTAATCTTTCTGTTCAAGCGCCATCTAC | 0.535
28 | GATGATTGTTCTCCCAGCTGATGAATTCGGGTTTTCGAGTAAACAAATTTTCCTAATCTTTCTGTTCAAGCGCCATCTAC | 0.554
29 | GATGATTGTTCTCCCAGCTGATGAATTGATGGCTTCGAGTAAACAAATTTTCCTAATCTTTCTGTTCAAGCGCCATCTAC | 0.598
30 | GATGATTGTTCTCCCAGCTGATGAATTGGGGGAGTCGAGTAAACAAATTTTCCTAATCTTTCTGTTCAAGCGCCATCTAC | 0.355
31 | GATGATTGTTCTCCCAGCTGATGAATTGCTATCATCGAGTAAACAAATTTTCCTAATCTTTCTGTTCAAGCGCCATCTAC | 1.18
32 | GATGATTGTTCTCCCAGCTGATGAATTACACATGTCGAGTAAACAAATTTTCCTAATCTTTCTGTTCAAGCGCCATCTAC | 0.677
33 | GATGATTGTTCTCCCAGCTGATGAATTCGTAGGATCGAGTAAACAAATTTTCCTAATCTTTCTGTTCAAGCGCCATCTAC | 0.344
34 | GATGATTGTTCTCCCAGCTGATGAATTGATACTTTCGAGTAAACAAATTTTCCTAATCTTTCTGTTCAAGCGCCATCTAC | 0.809
35 | GATGATTGTTCTCCCAGCTGATGAATTGTAGTCGTCGAGTAAACAAATTTTCCTAATCTTTCTGTTCAAGCGCCATCTAC | 0.76
36 | GATGATTGTTCTCCCAGCTGATGAATTTCAAAAGTCGAGTAAACAAATTTTCCTAATCTTTCTGTTCAAGCGCCATCTAC | 0.161
37 | GATGATTGTTCTCCCAGCTGATGAATTCTTGCAGTCGAGTAAACAAATTTTCCTAATCTTTCTGTTCAAGCGCCATCTAC | 0.519
38 | GATGATTGTTCTCCCAGCTGATGAATTGTACTATTCGAGTAAACAAATTTTCCTAATCTTTCTGTTCAAGCGCCATCTAC | 0.669
39 | GATGATTGTTCTCCCAGCTGATGAATTCTCTATTTCGAGTAAACAAATTTTCCTAATCTTTCTGTTCAAGCGCCATCTAC | 0.3
40 | GATGATTGTTCTCCCAGCTGATGAATTGTCGCAGTCGAGTAAACAAATTTTCCTAATCTTTCTGTTCAAGCGCCATCTAC | 0.66
